Assay results from publication PMC10668032.
The list shows a part of the results. At the low end of the ranking the order means little.

These sequences were tested against SIX1-Q177R homeodomain (UniProt Q15475) (assay: universal protein binding microarray). Details: Universal all-10-mer PBM (8x60K, AMADID 030236), 300 nM GST-tagged protein, Alexa Fluor 488 anti-GST; buffer, salt, pH and temperature not stated; high values mean tight binding; most listed sequences are background and not binding sites; double strand, one strand shown.
With AAGGGGGA the binding signal was 0.174 E-score.
GCCTAGAA gave a binding signal of -0.193 E-score.
CCAACGAA showed a binding signal of -0.0433 E-score.
CATAAAAA showed a binding signal of -0.258 E-score.
For GTAGCCCA, the binding signal was -0.126 E-score.
In the case of TAGGTGGA, the binding signal is reported as -0.0388 E-score.
AAGCTGAT showed a binding signal of 0.0276 E-score.
Sequence CCAGACGA has a binding signal of -0.158 E-score.
ATGCTCTC was tested, and the binding signal was -0.247 E-score.
With CATAAGCC the binding signal was -0.192 E-score.
With ATCGTTTG the binding signal was -0.187 E-score.
In the case of CTGTCCGA, the binding signal is reported as -0.128 E-score.
Work on CGCGGGTC yielded a binding signal of 0.0962 E-score.
Work on TGGGGACA yielded a binding signal of 0.146 E-score.
In the case of CGATCCAG, the binding signal is reported as 0.0116 E-score.
With CGTGTTAA the binding signal was 0.391 E-score.
CAGGGTCG was tested, and the binding signal was 0.0841 E-score.
Work on ACGTGGAC yielded a binding signal of -0.144 E-score.
ACTAAGGC showed a binding signal of -0.209 E-score.
For CACGAGTG, the binding signal was 0.317 E-score.
TGACCTCA was tested, and the binding signal was 0.0447 E-score.
Work on AAGGGCAT yielded a binding signal of -0.146 E-score.
AATAGCTC showed a binding signal of -0.133 E-score.
CAGATAGC gave a binding signal of -0.26 E-score.
CTCACAAC was tested, and the binding signal was -0.0671 E-score.
In the case of CCTCGCAG, the binding signal is reported as -0.0925 E-score.
Work on CCGTCGCC yielded a binding signal of -0.0877 E-score.
CCTGAAGG gave a binding signal of -0.0523 E-score.
Work on AATCGTTG yielded a binding signal of -0.0486 E-score.
With AGTAGGGA the binding signal was -0.218 E-score.
In the case of CAAGCAGA, the binding signal is reported as -0.166 E-score.
With CCGTCCAG the binding signal was -0.0624 E-score.
Sequence CCACTATC has a binding signal of -0.0324 E-score.
In the case of GGAACAGA, the binding signal is reported as -0.0364 E-score.
Sequence ATTTCGCC has a binding signal of -0.141 E-score.
CGACTCTC showed a binding signal of 0.0802 E-score.
CGTGTGGA showed a binding signal of 0.159 E-score.
AATGAAGT gave a binding signal of -0.0477 E-score.
CACAATGC gave a binding signal of -0.02 E-score.
With ACAACGGG the binding signal was -0.0854 E-score.
Work on GATTCGCC yielded a binding signal of -0.147 E-score.
Sequence CTAAACAC has a binding signal of 0.364 E-score.
With TATGAGGA the binding signal was -0.106 E-score.
For AGAGTTAG, the binding signal was -0.0385 E-score.
For GACCTTGA, the binding signal was -0.283 E-score.
AGGGGACG was tested, and the binding signal was 0.0251 E-score.
For ATGGGTCA, the binding signal was -0.0198 E-score.
With CCTCATAG the binding signal was -0.182 E-score.
AAAGTCCA gave a binding signal of -0.0664 E-score.
With GTCCAAGA the binding signal was -0.0268 E-score.
For CGACATTA, the binding signal was -0.00988 E-score.
GTGTCAAC was tested, and the binding signal was 0.443 E-score.
Sequence TACAGCCA has a binding signal of -0.239 E-score.
ATTATAGC was tested, and the binding signal was -0.14 E-score.
Sequence CATGTAAG has a binding signal of -0.212 E-score.
For AGTCCGCC, the binding signal was -0.163 E-score.
Work on ATTACCGG yielded a binding signal of -0.1 E-score.
For ACCTGTTG, the binding signal was 0.0724 E-score.
CGGATACC was tested, and the binding signal was 0.366 E-score.
For ATTTAATC, the binding signal was 0.0382 E-score.
CAGATAAG gave a binding signal of -0.0582 E-score.
CGGACTCC was tested, and the binding signal was 0.0869 E-score.
With GGCTGACC the binding signal was -0.026 E-score.
ATACTGAG gave a binding signal of 0.114 E-score.
GCGTACGC gave a binding signal of 0.235 E-score.
In the case of ATCGCTTG, the binding signal is reported as -0.245 E-score.
Work on ACTGTACC yielded a binding signal of 0.0342 E-score.
CGTATGAA gave a binding signal of -0.128 E-score.
With CTGCTGCC the binding signal was -0.194 E-score.
CCTGCTAA showed a binding signal of -0.0954 E-score.
For CGGCTTGA, the binding signal was -0.139 E-score.
ATCGGGGG showed a binding signal of 0.141 E-score.
GACCGAAA gave a binding signal of -0.3 E-score.
GGGACGAA showed a binding signal of -0.0615 E-score.
Sequence CTGTCCTA has a binding signal of -0.133 E-score.
CCTTTGGC showed a binding signal of 0.0541 E-score.
AGATCTGC showed a binding signal of -0.0398 E-score.
ATCAGATC gave a binding signal of 0.141 E-score.
In the case of CCTTTGGA, the binding signal is reported as -0.0559 E-score.
In the case of ATTTTCGA, the binding signal is reported as -0.0972 E-score.
Sequence CATATTCG has a binding signal of -0.276 E-score.
Sequence AGATTCAT has a binding signal of -0.0229 E-score.
Work on CTTTGGAC yielded a binding signal of -0.0351 E-score.
ATAGGCAG was tested, and the binding signal was -0.145 E-score.
For ACGGGTGC, the binding signal was 0.237 E-score.
GCTGACAA was tested, and the binding signal was -0.0435 E-score.
Sequence CTAATCAG has a binding signal of -0.061 E-score.
GAAGCGAA gave a binding signal of -0.315 E-score.
Sequence GACTGAAA has a binding signal of -0.167 E-score.
TAGCGATA showed a binding signal of -0.0721 E-score.
Sequence CCGATGTC has a binding signal of -0.176 E-score.
With TTTAGAAA the binding signal was -0.188 E-score.
In the case of ACGCCGGG, the binding signal is reported as 0.16 E-score.
Sequence GATGCCTA has a binding signal of -0.0508 E-score.
For GAGACACC, the binding signal was 0.462 E-score.
Sequence ACTACTAG has a binding signal of 0.123 E-score.
GAGATCTA was tested, and the binding signal was -0.268 E-score.
AAGCTAGG showed a binding signal of -0.179 E-score.
CCGGTGTC was tested, and the binding signal was 0.489 E-score.
CTAATACA was tested, and the binding signal was 0.148 E-score.
In the case of AAATGCAA, the binding signal is reported as -0.132 E-score.
In the case of ATTCGCGA, the binding signal is reported as 0.128 E-score.
CAGGATCA gave a binding signal of 0.113 E-score.
In the case of AGCAACCA, the binding signal is reported as -0.166 E-score.
Work on ACACGCTC yielded a binding signal of 0.384 E-score.
Sequence CCGACCCG has a binding signal of 0.176 E-score.
Sequence AATTTAGG has a binding signal of 0.0287 E-score.
CCGAGCAA was tested, and the binding signal was -0.197 E-score.
CACGTTCG showed a binding signal of 0.0313 E-score.
CGGGTCGA gave a binding signal of 0.0721 E-score.
In the case of AGCGTGCC, the binding signal is reported as -0.0349 E-score.
ACCTCTAG gave a binding signal of -0.0182 E-score.
Sequence AACGCCAG has a binding signal of 0.0176 E-score.
Work on CAGGACAG yielded a binding signal of -0.305 E-score.
CGTATCAG was tested, and the binding signal was 0.0587 E-score.
Work on GGTCGATA yielded a binding signal of 0.0901 E-score.
Sequence AGTGCTCG has a binding signal of 0.0628 E-score.
For ACACTATC, the binding signal was 0.342 E-score.
Work on AAAGATCT yielded a binding signal of -0.263 E-score.
ACGCTTCC showed a binding signal of -0.0372 E-score.
Sequence GGTTCCCA has a binding signal of -0.146 E-score.
In the case of GCCAAGTA, the binding signal is reported as -0.0633 E-score.
For CAGGGGTA, the binding signal was 0.234 E-score.
GACTGGGA gave a binding signal of 0.0378 E-score.
Sequence ATAAAGAC has a binding signal of -0.107 E-score.
In the case of GAACCCTC, the binding signal is reported as 0.0902 E-score.
Sequence TGAAGTCA has a binding signal of -0.152 E-score.
ACCCTTGG was tested, and the binding signal was 0.135 E-score.
Sequence CCATGACA has a binding signal of 0.222 E-score.
ATAATGTA showed a binding signal of -0.00813 E-score.
Sequence GATGCCGC has a binding signal of -0.0579 E-score.
Sequence ACTCGCAC has a binding signal of 0.0529 E-score.
CGTGAAGC was tested, and the binding signal was -0.243 E-score.
GCTAGCTA showed a binding signal of -0.15 E-score.
With AGTTACGA the binding signal was -0.0452 E-score.
For CTCCACAA, the binding signal was 0.0443 E-score.
AGCAACGC gave a binding signal of -0.0353 E-score.
ATGAACGG was tested, and the binding signal was -0.0572 E-score.
With GGATGATA the binding signal was 0.11 E-score.
Work on ACTCAACG yielded a binding signal of 0.00809 E-score.
Work on AGTCATGA yielded a binding signal of -0.0989 E-score.
Sequence GGAATTTA has a binding signal of -0.235 E-score.
GACACTGA was tested, and the binding signal was 0.403 E-score.
ATCTGAGC gave a binding signal of -0.192 E-score.
CCGACATC showed a binding signal of 0.109 E-score.
With GGCCAAAA the binding signal was -0.228 E-score.
For ACAGTGCA, the binding signal was 0.125 E-score.
Work on CCCGATCA yielded a binding signal of -0.0101 E-score.
CATAGTAC showed a binding signal of 0.135 E-score.
CGACGTGA showed a binding signal of -0.00209 E-score.
CATCCGTC was tested, and the binding signal was -0.121 E-score.
With ATCGTCTG the binding signal was -0.213 E-score.
With ATACTCGG the binding signal was 0.127 E-score.
Sequence CTCGGCGA has a binding signal of -0.0668 E-score.
In the case of ATAAATCC, the binding signal is reported as -0.0698 E-score.
Sequence CGTCACGA has a binding signal of -0.15 E-score.
With ACTTTTAT the binding signal was -0.247 E-score.
GGGGACCC gave a binding signal of -0.000785 E-score.
Sequence GCAGGCCC has a binding signal of -0.216 E-score.
For AGTTGGGA, the binding signal was -0.00893 E-score.
Work on GCGGTCTA yielded a binding signal of -0.0255 E-score.
ATATAGCC gave a binding signal of 0.104 E-score.
For ATGCTCGA, the binding signal was -0.179 E-score.
In the case of CCCCGACG, the binding signal is reported as 0.162 E-score.
ATCATTGG gave a binding signal of -0.0499 E-score.
Work on GACCTATC yielded a binding signal of -0.192 E-score.
Sequence CTAGAAAC has a binding signal of -0.225 E-score.
In the case of CAGGACTC, the binding signal is reported as -0.121 E-score.
For AATCCTGA, the binding signal was -0.161 E-score.
CATCACCA gave a binding signal of -0.051 E-score.
For TGCAGCCA, the binding signal was -0.113 E-score.
AAGTGAGT gave a binding signal of 0.0521 E-score.
